Measurements as given in article PMC3462795.
Where a chain is given by its changes, count along the chain named. These are yes or no findings as the source states them, for the method shown. In cells and extracts the contact can be indirect. Some results given as binding are weak or reduced against the parent protein; the word gives no strength. For some of these results: Where a sequence is shown, tags or fusion partners need not be part of it.

Chains of the proteins cited; added tags and fusions are not shown.
UniProt P63010: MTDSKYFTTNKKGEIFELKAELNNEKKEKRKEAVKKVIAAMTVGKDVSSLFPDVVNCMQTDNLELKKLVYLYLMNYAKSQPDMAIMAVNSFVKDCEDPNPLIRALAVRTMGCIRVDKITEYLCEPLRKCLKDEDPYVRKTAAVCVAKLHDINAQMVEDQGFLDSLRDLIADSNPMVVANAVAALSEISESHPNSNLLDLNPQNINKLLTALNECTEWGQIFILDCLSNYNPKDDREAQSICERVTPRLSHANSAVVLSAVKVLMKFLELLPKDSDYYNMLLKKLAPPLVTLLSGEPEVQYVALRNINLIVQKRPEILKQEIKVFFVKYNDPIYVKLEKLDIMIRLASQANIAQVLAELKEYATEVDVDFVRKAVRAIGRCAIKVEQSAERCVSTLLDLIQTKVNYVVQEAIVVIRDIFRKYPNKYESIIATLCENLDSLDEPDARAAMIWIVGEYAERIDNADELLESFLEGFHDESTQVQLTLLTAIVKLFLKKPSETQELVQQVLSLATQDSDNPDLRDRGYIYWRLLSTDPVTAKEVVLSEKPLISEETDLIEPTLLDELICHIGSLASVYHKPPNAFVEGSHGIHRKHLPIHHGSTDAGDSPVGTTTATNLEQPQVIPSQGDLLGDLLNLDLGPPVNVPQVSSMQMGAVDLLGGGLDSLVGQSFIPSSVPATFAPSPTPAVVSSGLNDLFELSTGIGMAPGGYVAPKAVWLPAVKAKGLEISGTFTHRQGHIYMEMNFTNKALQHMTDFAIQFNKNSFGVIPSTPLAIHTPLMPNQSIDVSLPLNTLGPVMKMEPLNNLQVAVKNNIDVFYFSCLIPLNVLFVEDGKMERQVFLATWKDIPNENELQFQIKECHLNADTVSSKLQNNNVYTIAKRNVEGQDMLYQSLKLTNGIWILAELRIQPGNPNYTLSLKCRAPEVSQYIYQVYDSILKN
UniProt O43747: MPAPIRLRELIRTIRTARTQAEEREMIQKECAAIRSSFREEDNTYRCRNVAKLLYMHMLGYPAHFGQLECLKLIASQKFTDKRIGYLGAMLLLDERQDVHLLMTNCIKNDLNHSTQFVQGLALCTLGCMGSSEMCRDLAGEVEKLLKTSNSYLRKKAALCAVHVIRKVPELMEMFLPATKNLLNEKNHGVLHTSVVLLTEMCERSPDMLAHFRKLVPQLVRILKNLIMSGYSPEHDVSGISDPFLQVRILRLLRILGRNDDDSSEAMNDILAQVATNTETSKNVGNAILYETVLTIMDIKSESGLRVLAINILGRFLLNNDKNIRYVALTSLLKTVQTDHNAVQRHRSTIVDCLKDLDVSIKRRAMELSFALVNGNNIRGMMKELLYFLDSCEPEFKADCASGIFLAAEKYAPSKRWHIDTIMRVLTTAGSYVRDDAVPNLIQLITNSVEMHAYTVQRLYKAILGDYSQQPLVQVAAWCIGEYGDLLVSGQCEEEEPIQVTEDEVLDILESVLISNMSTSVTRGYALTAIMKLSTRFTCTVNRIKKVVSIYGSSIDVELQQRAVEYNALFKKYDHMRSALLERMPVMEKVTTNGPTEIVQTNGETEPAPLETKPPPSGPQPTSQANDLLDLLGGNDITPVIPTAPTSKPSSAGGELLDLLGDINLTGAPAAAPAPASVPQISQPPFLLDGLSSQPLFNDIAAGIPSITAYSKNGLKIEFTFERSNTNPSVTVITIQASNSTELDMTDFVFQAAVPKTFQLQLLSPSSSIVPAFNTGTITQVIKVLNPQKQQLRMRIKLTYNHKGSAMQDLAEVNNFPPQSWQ

Legend:
[1] = target: T1, actopaxin (in vitro binding experiment) (UniProt Q9HB97); experiment: pull-down; in vitro transcription/translation pulldown; which partner was translated in vitro and which was the bait is not told
T1 sequence: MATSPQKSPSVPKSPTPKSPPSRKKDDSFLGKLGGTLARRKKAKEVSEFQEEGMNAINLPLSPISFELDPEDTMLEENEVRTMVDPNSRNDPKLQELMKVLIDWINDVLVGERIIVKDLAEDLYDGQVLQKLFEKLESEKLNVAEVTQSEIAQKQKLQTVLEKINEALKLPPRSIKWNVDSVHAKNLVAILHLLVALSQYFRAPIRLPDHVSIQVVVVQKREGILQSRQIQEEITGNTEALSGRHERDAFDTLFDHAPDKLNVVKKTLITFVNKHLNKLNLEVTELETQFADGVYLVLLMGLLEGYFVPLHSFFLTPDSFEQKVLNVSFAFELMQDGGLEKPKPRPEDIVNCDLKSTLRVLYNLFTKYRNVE

[2] = target: T2, GST-actopaxin (full-length) (UniProt Q9HB97); experiment: pull-down; GST fusion proteins incubated with clarified U2OS lysate (20 mM Tris/HCl pH 7.6, 50 mM NaCl, 1% NP-40, 10% glycerol), 2 hours at 4°C, washed 3x, Western blot; only the target purified
T2 sequence: T1 sequence

GFP-actopaxin 1–95 = target: T3, GFP-actopaxin 1–95 (UniProt Q9HB97); experiment: co-IP; immunoprecipitation of GFP from U2OS cells expressing GFP empty vector or GFP-actopaxin 1–95; blot for β2-adaptin
T3 sequence: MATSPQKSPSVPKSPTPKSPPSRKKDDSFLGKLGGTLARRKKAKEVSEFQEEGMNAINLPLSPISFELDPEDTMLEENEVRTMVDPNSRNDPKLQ

[3] = target: T4, actopaxin (endogenous) (human (endogenous in U2OS)) (UniProt Q9NVD7); experiment: co-IP; endogenous proteins from U2OS cells spread on collagen for 45 and 120 minutes; 20 mM Tris/HCl pH 7.6, 0.5% NP-40, 100 mM NaCl, 10% glycerol, 1 mM MgCl2; primary antibody 2 hours at 4°C, protein A/G beads, Western blot
T4 sequence: T1 sequence with F49L, S65P, N90S, A167T, N186S

GST-actopaxin 96-372 = target: T5, GST-actopaxin 96-372 (UniProt Q9HB97); experiment: pull-down; GST fusion proteins incubated with clarified U2OS lysate (20 mM Tris/HCl pH 7.6, 50 mM NaCl, 1% NP-40, 10% glycerol), 2 hours at 4°C, washed 3x, Western blot; only the target purified
T5 sequence: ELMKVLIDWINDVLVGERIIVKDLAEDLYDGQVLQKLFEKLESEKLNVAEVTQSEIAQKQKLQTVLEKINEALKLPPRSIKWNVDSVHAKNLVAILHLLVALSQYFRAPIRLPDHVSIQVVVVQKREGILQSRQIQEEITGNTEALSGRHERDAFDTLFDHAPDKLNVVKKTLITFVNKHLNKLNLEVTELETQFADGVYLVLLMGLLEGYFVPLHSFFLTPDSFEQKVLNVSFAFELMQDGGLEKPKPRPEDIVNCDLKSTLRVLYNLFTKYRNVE

GST-actopaxin 1-95 = target: T6, GST-actopaxin 1-95 (UniProt Q9HB97); experiment: as above
T6 sequence: T3 sequence

Substance | binding [1] | binding [2] | binding (GFP-actopaxin 1–95) | binding [3] | binding (GST-actopaxin 96-372) | binding (GST-actopaxin 1-95)
β2-adaptin (in vitro binding experiment) (from UniProt P63010 1-937) | binds |  |  |  |  | 
γ-adaptin (endogenous) (from UniProt O43747 1-822) |  | no binding |  |  |  | 
β2-adaptin (endogenous) (from UniProt P63010 1-937) |  | binds | binds | binds | no binding | binds
